Screen size: about 46,000 compounds; about 60 (0.1%) were called active. Roughly 3% stayed inconclusive and do not appear here. Calls follow the shape of the dose curve; as a rule, active = well fitted inhibition curve with a large enough effect; inconclusive = small, poorly fitted or top-dose-only effect; inactive = no such curve, though single readings can be large or run the other way. The list shows a part of the results.
Assay: Primary qHTS assay for Inhibitors of ovarian cancer metastasis using an organotypic tumor microenvironment (TME) model. Also: nearly all actives have a fitted effect of over 65% in size.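 As to activity change, negative = inhibition: plate controls were DMSO wells for no effect and tomatine positive control wells for full effect.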
Details: SKOV3ip1-GFP adhesion/invasion on 3D omental model, fluorescence; series mostly up to 45.8 µM; activity change, negative = inhibition: at the top concentration
In short: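 Adhesion/invasion was scored as fixed GFP-labeled SKOV3ip1 cell counts (488/509 nm), normalized to DMSO and tomatine controls. Cancer cells in serum-free medium, with four compound doses (0.36-46 umol/L), sat 2 hr at RT then 16 hr at 37 C on a 48 hr fibroblast/mesothelial/ECM culture.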

Activity change, negative = inhibition, inactive:
Cc1cccc(C(=O)Nc2ccc3nc(SCC(=O)N4CCCC4)sc3c2)c1 -6.62%
O=C(CSc1nc(=O)[nH]c2c1CCC2)Nc1cc(C(F)(F)F)ccc1Cl -5.95%
Cc1ccc2oc(=O)c3cnn(CC(=O)N4CCN(c5cccc(Cl)c5)CC4)c3c2c1 5.27%
CCOC(=O)c1[nH]c(C)c(CCC(=O)N2CCN(c3cc(C)ccc3C)CC2)c1C -3.93%
CCOc1ccc(OCC)c(NC(=O)CN(C)S(=O)(=O)c2ccc3[nH]c(=O)oc3c2)c1 5.68%
O=C(NCCc1ccc(Cl)cc1)c1cnc2sc(N3CCCC3)nn2c1=O 1.26%
O=C(c1cccs1)N1CCCc2cc(NS(=O)(=O)c3cc(F)ccc3F)ccc21 0.451%
Cc1ccc(OCC(=O)NCC(=O)OCc2cc(=O)n3nc(CC(C)C)sc3n2)cc1 21.3%
CC(=O)c1cccc(NC(=O)CCn2nc(C)c(S(=O)(=O)N3CCCCC3)c2C)c1 8.08%
COc1ccc(-c2nn3c(-c4ccccc4)nnc3c3ccccc23)cc1 -7.44%
Nc1nccc(Oc2ccc(NC(=O)c3c[nH]cc(-c4ccc(F)cc4)c3=O)cc2F)c1Cl -14.3%
Oc1ccccc1-c1nc2cnccn2c1Nc1ccc(Cl)cc1 -13.2%
Cc1ccc2nc(NC(=O)CSc3cc(C)[nH]c(=O)n3)sc2c1 6.46%
COc1ccc(CNC(=O)CN2C(=O)COc3ccccc32)c(OC)c1 -2.05%
CCOc1ccc(CNC(=O)CCCn2c(=O)c3cccn3c3cccnc32)cc1 6.84%
COc1cccc2c(NCc3ccccc3)nc(-n3c(N)nc4ccccc43)nc12 16.4%
CCOc1ccc(C(=O)N2CCc3cc(OC)c(OC)cc3C2COc2ccc3c(C)cc(=O)oc3c2)cc1OCC (stereo unspecified) -1.89%
CCn1c(C(=O)Nc2ccccc2C(=O)OC)cc2sc(Cl)cc21 -4.42%
COC(=O)c1c(NC(=O)CCCOc2ccc(C)cc2)sc2c1CCCC2 1.91%
COc1cc(NC(=O)CCNC(=O)Cn2ccc3ccccc3c2=O)cc(OC)c1OC -1.18%
CCCOc1ccc(OC(=O)c2ccc(-c3ccc(CCC)cn3)cc2)cc1 -7.56%
Cc1ccccc1Cn1c(SCc2ccc(C(=O)N3CCCCC3)cc2)nc2ccncc21 3.73%
O=S(=O)(NCCc1csc(-c2cccc(F)c2)n1)c1cc(F)ccc1F -24%
O=C(CCCCn1c(=O)c2ccccc2n(Cc2ccc(F)cc2Cl)c1=O)NCCc1ccc(Cl)cc1 -17.7%
CCCn1ccc2c(OCC(=O)Nc3ccccc3C(=O)OCC)cccc2c1=O 1.27%
Cc1ccc(NC(=O)Cn2c(=O)n(Cc3ccc(F)cc3)c(=O)c3cccnc32)cc1C -9.55%
CCOC(=O)c1cc2c(=O)n3ccccc3nc2n(CCCOC)c1=NC(=O)c1c(-c2c(F)cccc2Cl)noc1C 2.51%
CCC(=O)N1CCc2cc(CNC(=O)Nc3cc(OC)c(OC)c(OC)c3)ccc21 3.62%
CCOC(=O)c1ccc(Nc2c(-c3ccc(OC)cc3)nc3nc[nH]n23)cc1 -4.33%
CCOc1ccc(CCNC(=O)C2Cc3ccccc3N2C(=O)CC)cc1 (stereo unspecified) 2.96%
CCOc1ccc(S(=O)(=O)Nc2ccc3c(c2)CCCN3C(=O)c2cccs2)cc1 -12%
Cc1ccccc1Cn1c(=O)n(Cc2ccco2)c(=O)c2sc3ccccc3c21 7.08%
COc1ccc(CNC(=O)CC(C)CC2=NS(=O)(=O)c3ccccc3N2)cc1 (stereo unspecified) -3.83%
COc1ccccc1CNC(=O)Cc1c(C)c2cc3c(C)coc3c(C)c2oc1=O -2.16%
O=C(Cc1ccc(NC(=O)N2CCCCc3ccccc32)cc1)NCc1cccc(Br)c1 -3.94%
Cc1nnc(SCc2cc(=O)c3cc(F)ccc3[nH]2)n1C 3.23%
COc1ccc(CNC(=O)C(=O)NCC(c2ccco2)S(=O)(=O)c2cccs2)cc1 (stereo unspecified) -3.74%
Cc1ccc(S(=O)(=O)c2nc(-c3cccs3)oc2SCc2ccc(F)cc2)cc1 -23.6%
CC(C)c1ccccc1NC(=O)C(Cc1c[nH]c2ccccc12)NC(=O)OC(C)(C)C (stereo unspecified) 0.531%
C=C(C)Cn1c(SCC(=O)c2ccc(Br)cc2)nc2sc3c(c2c1=O)CCCC3 3.03%
CC1=C(C#N)C(NC(=O)c2ccccc2)(C(F)(F)F)C(=O)N1 (stereo unspecified) -0.153%
Cc1ccc(NS(=O)(=O)c2ccc3c(c2)CCN3C(=O)C2CC2)c(C)c1 40.4%
CCOC(=O)C1CCCN(C(=O)Cn2ncc3c(C)n(Cc4ccc(Cl)cc4)c(C)c3c2=O)C1 (stereo unspecified) -1.35%
Cc1ccc(NC(=O)c2ccc3c(O)c(S(=O)(=O)c4ccc(Cl)cc4)c(=O)[nH]c3c2)cc1 -8.91%
CC(=O)c1ccc(NC(=O)Nc2sc3nc4n(c(=O)c3c2C)CCC(C)CC4)cc1 (stereo unspecified) -1.25%
COc1ccc(CN(Cc2ccco2)C(=O)COc2ccccc2OC)cc1 -2.97%
Cc1nc(SCC(=O)Nc2ccc(C)c(Cl)c2)cc(-c2ccccc2)n1 -0.589%
CCOc1ccc(C(=O)Oc2c(Sc3ccccc3)c(C)nn2C(C)(C)C)cc1OCC 4.7%
CCc1ccc2occ(CC(=O)Nc3ccc(OC)c(Cl)c3)c2c1 7.19%
O=C(c1ccc2c(c1)CCN2S(=O)(=O)c1ccccc1)N1CCN(c2ccccc2F)CC1 5.59%
CC(C)c1ccc(CNC(=O)c2ccc(N3CCCC3)c(NC(=O)NCc3ccccc3)c2)cc1 3.19%
COc1ccccc1N1CCN(S(=O)(=O)c2ccc(F)c(C(=O)Nc3ccc(Cl)cc3C(F)(F)F)c2)CC1 0.204%
Nc1ncnc2c1nc(Cl)n2[C@@H]1O[C@H](CO)[C@@H](O)[C@@H]1O -10.8%
CCc1ccccc1-n1cnc2cc(C(=O)NC3CCCCCC3)ccc21 -5.78%
Cc1[nH]c2ccccc2c1C1(O)C(=O)N(Cc2ccccc2)c2ccc(Cl)cc21 (stereo unspecified) -16.3%
Cc1ccc(OCC(=O)Nc2c(C(=O)c3ccc(Cl)cc3)oc3ccccc23)cc1C 3.77%
CC(=O)N1CCCc2cc(S(=O)(=O)N3CCCC(C(=O)NC(C)C)C3)ccc21 (stereo unspecified) 1.23%
CSc1ccc(-c2nc3cccc(C)n3c2Nc2ccc3c(c2)OCO3)cc1 -19.2%
COc1ccc(-n2nc(C(=O)Nc3ccc(C(C)=O)cc3)nc2-c2ccccc2)cc1 -7.01%
CC(C)Oc1ccc(CNC(=O)c2sc3ncccc3c2-n2cccc2)cc1 1.32%
CCOc1ccc(C2c3c(oc4ccc(C)cc4c3=O)C(=O)N2CCCN(C)C)cc1OC (stereo unspecified) 3.75%
O=S(=O)(c1ccc(Cl)cc1)c1nc(-c2cccs2)oc1SCc1ccccc1F -6.84%
Cc1cn(C)c(CC(=O)Nc2ccc(F)cc2Cl)c1C(=O)O 0.204%
Cc1ccc(OCC(=O)Nc2nonc2-c2ccc(Br)cc2)cc1C -9.83%
NC(=O)Nc1cc(-c2cccc(F)c2)sc1C(=O)N[C@H]1CCCNC1 -20.6%
Cc1cc(C)cc(OCCSc2nc3ccc(NC(=O)COc4ccccc4)cc3s2)c1 -0.75%
CCOC(=O)c1c(NC(=O)C2c3ccccc3Oc3ccccc32)sc2c1CCC(CC)C2 (stereo unspecified) 3.76%
Clc1ccc(CCNC(c2ccc(Cl)cc2)c2nnc(-c3ccccc3)o2)cc1 (stereo unspecified) -3.69%
CCc1ccc(NC(=O)Cn2nc(SC)c(S(=O)(=O)c3ccc(OC)cc3)c2N)cc1 -1.71%
COc1ccc(-c2ccc(NS(=O)(=O)c3cc(C)c(C)cc3C)cc2)nn1 -13%
O=C(c1ccc(F)cc1)C1CCN(CCn2c(=O)[nH]c3ccccc3c2=O)CC1 -12.3%
CCCc1nc(C(C)(C)O)c(C(=O)O)n1Cc1ccc(-c2ccccc2-c2nn[nH]n2)cc1 0.199%
CCOC(=O)c1c(S(=O)(=O)N2CCCC(C(=O)N3CCN(c4cc(C)ccc4C)CC3)C2)c(C)n(C)c1C (stereo unspecified) 1.88%
CC(=O)C1=C(c2cccc([N+](=O)[O-])c2)N(C(C)=O)n2c(nnc2-c2ccc(C)cc2)S1 -5.25%
CCS(=O)(=O)NCC(c1ccco1)N1CCN(c2ccc(F)cc2)CC1 (stereo unspecified) -8.17%
COc1cccc(CNC(=O)Cn2nc(C)c3sc4ccccc4c3c2=O)c1OC -0.303%
Cc1cccc(Nc2sc(C(=O)c3ccc(Cl)cc3)c(N)c2C(N)=O)c1 -0.777%

outcome, inactive:
CCc1ccccc1NC(=O)C1CCCN(S(=O)(=O)c2ccc3[nH]c(=O)ccc3c2)C1 (stereo unspecified)
CC(=O)c1ccc(NC(=O)C2CCN(S(=O)(=O)c3c(C)noc3/C=C/c3ccc(C)cc3)CC2)cc1
O=C1CCc2cc(S(=O)(=O)NCc3ccccc3)cc3c2N1CC3
COc1ccc(CCNC(=O)c2cc(Nc3ccccc3)nc3ccccc23)cc1OC
COC(=O)c1ccccc1NC(=O)CCCn1c(C)c2cnn(-c3ccccc3)c(=O)c2c1C
O=C(Nc1ccc(S(=O)(=O)N(Cc2ccccc2)c2ccccc2)cc1)c1ccccc1F
CCN(CC)C(=O)C1=C(C)Nc2nc3ccccc3n2C1c1ccccc1F (stereo unspecified)
CCCCn1c(SCc2ccccc2C)nc2ccsc2c1=O
Cc1cccc(N2CCN(C(=O)Cn3c(C)c4cnn(-c5ccccc5)c(=O)c4c3C)CC2)c1C
O=C(Nc1ccccc1Cl)[C@H](CSCc1ccccc1)N1Cc2ccccc2C1=O
COc1ccc(N2C(=O)C(CC(=O)Nc3ccccc3)N(CCC3=CCCCC3)C2=O)cc1 (stereo unspecified)
CCCCNC(=O)CCc1c(C)nc2cc(-c3ccccc3)nn2c1C
COc1ccc(-c2nnc(SC(C)C(=O)O)o2)cc1 (stereo unspecified)
Cc1cc(-c2ccc(S(=O)(=O)Nc3ccc(Cl)cc3)cc2)on1
COc1ccc(-c2nnc(SCCOc3ccccc3C)o2)cc1OC
O=C(Nc1nc2c(F)cccc2s1)c1ccc(S(=O)(=O)N2CCCc3ccccc32)cc1
CCn1nc(C)c2c(-c3ccccc3)cc(=O)n(C(C)C(=O)Nc3cc(C)ccc3C)c21 (stereo unspecified)
CCOC(=O)C(CC)N1CCN(Cc2ccc(F)cc2)C(=O)C1=O (stereo unspecified)
CCc1ccc(NC(=O)Cn2c(=O)n(CCCC(=O)NCc3ccc4c(c3)OCO4)c(=O)c3ccccc32)cc1

From PubChem BioAssay AID1963576 (National Center for Advancing Translational Sciences (NCATS), 2024)
